# Patent US6933364 (TOSOH, dated 2005)
# Biological target: bovine TSH (bovine, UniProt P01217 fragment; P01223 fragment)
# Assay: gel filtration; unlabelled bTSH displaces ^125I-TSH from the complex
row,Binder,binding result
1,"sTSHR No. 5 in FIG. 1 (baculovirus gp 67 signal sequence added to amino acid residues of the 21st to the 410th of natural TSHR, six histidine residues at the … (receptor) not shown",binds
2,"sTSHR No. 6 in FIG. 1 (baculovirus gp 67 signal sequence added to amino acid residues of the 21st to the 415th of natural TSHR, six histidine residues at the … (receptor) not shown",binds
